SMILES strings stand for the structures. Out of some 310,000 compounds screened, about 14,000 (4.5%) showed an effect of 50% or more. The effect is printed as a negative number. This is one part of the list.

This is an account of results in publication PMC4336329 (PLoS ONE, 2015).
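Note: peak tail current of the secondary pulse compared with the same well before compound.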

human ether-à-go-go-related gene (hERG) potassium channel, sequence (Q12809 whole entry, looked up): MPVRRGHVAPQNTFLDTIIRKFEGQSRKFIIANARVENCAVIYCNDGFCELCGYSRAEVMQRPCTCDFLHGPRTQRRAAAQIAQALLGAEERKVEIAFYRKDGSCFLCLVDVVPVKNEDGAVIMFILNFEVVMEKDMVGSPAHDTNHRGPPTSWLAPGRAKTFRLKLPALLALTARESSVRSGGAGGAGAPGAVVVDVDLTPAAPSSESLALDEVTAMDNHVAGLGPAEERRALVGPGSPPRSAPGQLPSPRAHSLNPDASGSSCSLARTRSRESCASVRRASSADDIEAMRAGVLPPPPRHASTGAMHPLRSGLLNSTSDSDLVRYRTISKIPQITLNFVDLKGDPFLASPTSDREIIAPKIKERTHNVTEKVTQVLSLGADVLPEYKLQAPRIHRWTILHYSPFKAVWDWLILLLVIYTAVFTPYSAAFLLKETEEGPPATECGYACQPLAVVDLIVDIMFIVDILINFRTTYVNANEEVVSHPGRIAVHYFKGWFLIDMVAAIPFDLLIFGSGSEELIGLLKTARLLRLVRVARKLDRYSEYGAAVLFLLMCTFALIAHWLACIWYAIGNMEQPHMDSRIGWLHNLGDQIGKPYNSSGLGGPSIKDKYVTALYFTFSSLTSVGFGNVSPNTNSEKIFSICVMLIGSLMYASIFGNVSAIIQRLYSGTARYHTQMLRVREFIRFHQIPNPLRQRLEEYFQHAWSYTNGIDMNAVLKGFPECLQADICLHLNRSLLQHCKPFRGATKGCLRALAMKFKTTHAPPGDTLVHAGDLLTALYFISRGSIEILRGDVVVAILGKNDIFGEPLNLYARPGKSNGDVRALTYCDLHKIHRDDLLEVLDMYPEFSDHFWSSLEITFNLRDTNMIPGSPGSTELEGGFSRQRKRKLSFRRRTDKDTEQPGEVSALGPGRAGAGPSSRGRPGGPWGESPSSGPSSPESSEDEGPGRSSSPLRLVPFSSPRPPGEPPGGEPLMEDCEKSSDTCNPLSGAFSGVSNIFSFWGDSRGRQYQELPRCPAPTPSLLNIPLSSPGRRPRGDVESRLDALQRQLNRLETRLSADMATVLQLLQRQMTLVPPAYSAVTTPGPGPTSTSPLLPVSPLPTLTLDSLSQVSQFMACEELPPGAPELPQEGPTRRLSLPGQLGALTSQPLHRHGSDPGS

This test has as its target human ether-à-go-go-related gene (hERG) potassium channel (human, UniProt Q12809). The test can be described thus: primary screen, population patch clamp on CHO cells stably expressing hERG.
Consider `CCOC(=O)NC(=O)c1cn(CCNCCO)c(=O)[nH]c1=O`, for which the “hERG current change (%, negative = inhibition) at 10uM” value came to 25.7%.
The figure for `Cc1cccc(NC(=S)N2CCCCC2)c1` is -3.73%.
Turning to `O=Cc1ccc(N2Cc3ccccc3C2)cc1`, the “hERG current change (%, negative = inhibition) at 10uM” value stood at 10.5%.
The same measure for `Cc1coc2c(O)cc3c(c12)OC1(N2CCCCC2)C(=O)NCCCC31` (centres unmarked): -3.64%; for `O=C(NC1CCCCC1)C(c1ccncc1)N(Cc1ccc(F)cc1)C(=O)c1ccccn1` (centres unmarked): -5.49%; for `COc1cccc(OC)c1NC(=O)NC(=O)c1c(OC)c(Br)cc([N+](=O)[O-])c1OC`: -13.6%.
The figure for `O=c1cnnc(Nc2ccc(Cl)c(C(F)(F)F)c2)[nH]1` is 18.6%; for `Cc1cc2cc3c(cc2nc1SCC(=O)Nc1ccccc1)CCC3` it is -0.42%.
The figure for `O=C(CCCCCN1C(=O)c2ccccc2C1=O)NCCc1nc2ccccc2[nH]1` is -5.88%; for `Cc1ccc(-c2nnc(CCC(=O)NCC3C4CC5CC(C4)CC3C5)o2)s1` (centres unmarked) it is -6.1%; for `COC(=O)CCNS(=O)(=O)c1ccc2ccccc2c1` it is 8.33%.
Take `O=C(Cc1ccccc1)Nc1ccc2oc(-c3ccncc3)nc2c1`: the “hERG current change (%, negative = inhibition) at 10uM” value is on record as 0.815%.
The same measure for `COc1cccc(C(=O)Nc2nc3ccccc3[nH]2)c1`: 3.82%; for `CCOc1ccc(NC(=O)c2cccc3c2C(=O)N(Cc2cccnc2)C3)cc1`: -22%; for `Cc1ccccc1NC(=O)Cc1nc(COC(=O)c2nc(Cl)ccc2Cl)cs1`: -37.2%.
The same measure for `Cc1cc(C)c(S(=O)(=O)Nc2cnc3ccccc3c2)c(C)c1`: 11.7%; for `CC(C)CCNC(=O)c1sc2ccc(S(=O)(=O)N3CCCCC3)cc2c1N`: -0.722%; for `CCOc1ccc(NS(=O)(=O)c2ccc(C(=O)NCC(c3ccccc3OC)N3CCCC3)cc2)cc1` (centres unmarked): -26.6%.
The same measure for `CCN(CC)CCCNC(=O)c1cc2nc(-c3ccccc3)cc(C(F)(F)F)n2n1`: -8.1%; for `COc1ccc2c3c(cccc13)N(C)N=C2C`: 0.0924%.
As to `CC(Cc1ccccc1)C(=O)Nc1ccccc1` (centres unmarked), the “hERG current change (%, negative = inhibition) at 10uM” value worked out at 0.888%.
The figure for `CCCNC(=O)c1ccc(Cn2cc(-c3ccc(OC)cc3)nc2C(C)N)cc1` (centres unmarked) is -15.2%; for `COc1cc(C2C(C#N)=C(N)OC3=C2C(=O)CCC3)ccc1OC(=O)N1CCOCC1` (centres unmarked) it is 2.56%.
The same measure for `COc1ccc(Cl)cc1S(=O)(=O)N1CCCC1`: -11%; for `COc1ccc(OCC(=O)Nc2cc(-c3nn(C)c(=O)c4ccccc34)ccc2N2CCOCC2)cc1`: 9.34%.
The same measure for `CC(=O)c1ccc(OCCCC(=O)Nc2cc(S(=O)(=O)N(C)C)ccc2C)cc1`: 0.514%; for `O=C(O)c1ccc(-n2c(O)c(C=C3N=c4ccccc4=N3)sc2=S)cc1`: -4.72%.
Regarding `Cc1cc(C)cc(NC(=O)C2CCCN(S(=O)(=O)c3c(C)noc3C)C2)c1` (centres unmarked), the “hERG current change (%, negative = inhibition) at 10uM” value is -4.34%.
The figure for `CC1CCN(S(=O)(=O)c2ccc(NC(=O)CN3CCN(c4ccccc4)CC3)cc2)CC1` is -58.2%; for `C=CCOc1cccc(C2/C(=C(/O)c3ccc4c(c3)CC(C)O4)C(=O)C(=O)N2CCN2CCOCC2)c1` (centres unmarked) it is 8.7%.
The figure for `CCOC(=O)c1cnn(-c2ncnc3c2cnn3Cc2ccccc2)c1N` is 11.3%; for `COc1ccccc1CNS(=O)(=O)c1cccs1` it is 18.8%.
The same measure for `CCOC(=O)N1CCN(C(=O)Nc2ccc(Cl)cc2Cl)CC1`: 0.0383%; for `COc1cc2c(cc1OC)-c1cc(OCc3ccccc3Cl)nc(=O)n1CC2`: -44.9%.
In the case of `CC(=O)Nc1ccc(NC(=O)c2c(-c3ccccc3Cl)noc2C)c(C)c1`, the “hERG current change (%, negative = inhibition) at 10uM” value is recorded as 2.4%.
Consider `CCOC(=O)c1ccc(NC(=O)NS(=O)(=O)c2ccc(C)cc2)cc1`, for which the “hERG current change (%, negative = inhibition) at 10uM” value amounted to 10.9%.
As to `OC(c1ccncc1)(c1ccc(F)cc1)c1ccc(F)cc1`, the “hERG current change (%, negative = inhibition) at 10uM” value came to 3.15%.
Turning to `Cc1cccc(N/C(N)=N/c2nc3c(c(=O)[nH]2)CCCC3)c1`, the “hERG current change (%, negative = inhibition) at 10uM” value is given as -2.75%.
The figure for `COC(=O)c1cc(-c2ccccc2)n(CC(=O)O)c1C` is 1.69%.
With `Cc1nc(C)c(-c2ccn(S(=O)(=O)c3ccc(Cl)cc3)n2)o1`, the “hERG current change (%, negative = inhibition) at 10uM” value was -19.7%.
The same measure for `CCOC(=O)c1ccc(NC(=S)NC(=O)COc2ccccc2)cc1`: 11%.
The same measure for `COc1ccccc1CNC(=S)Nc1ccc(S(N)(=O)=O)cc1`: 17.4%; for `COc1cccc(-n2c(SCC(=O)N3CCCCC3)nc3c([nH]c4ccccc43)c2=O)c1`: 12.4%.
The same measure for `O=C(NCCc1nc2ccccc2[nH]1)/C(=C/c1ccco1)NC(=O)c1ccc(Br)o1`: -63.2%.
Regarding `CCOc1ccccc1N1CCN(C/C=C/c2ccc(N(C)C)cc2)CC1`, the “hERG current change (%, negative = inhibition) at 10uM” value is -60.1%.
The same measure for `COC/C=C/C1=CC2=CC(=O)C(C)(OC(=O)c3ccco3)C(=O)C2=CO1` (centres unmarked): 23.9%; for `COCCCn1c(SCC(=O)N(C)C)nnc1-c1ccccc1`: 21.5%; for `CC(NC(=O)C(=O)N1CCCCC1)C(c1cccs1)N1CCN(C)CC1` (centres unmarked): 19.9%.
The same measure for `CC(C)(C)c1nnc2sc(SCC(=O)c3ccc4c(c3)OCCO4)nn2c1=O`: 26%.
For `Cn1c(N)c(C(=O)COC(=O)c2cc(S(=O)(=O)N3CCCCC3)ccc2Cl)c(=O)n(C)c1=O`, the “hERG current change (%, negative = inhibition) at 10uM” value was -10.3%.
For the compound `CC(=O)Nc1ccccc1C(=O)C(=O)O`, the “hERG current change (%, negative = inhibition) at 10uM” value is on record as 12.4%.
Take `CN(CCNC(=O)CN1C(=O)CSc2ccc(S(=O)(=O)N3CCCC3)cc21)Cc1ccccc1`: the “hERG current change (%, negative = inhibition) at 10uM” value was -36.9%.
The figure for `O=C(c1ccco1)N1CCN(c2ccnc3cc(Cl)ccc23)CC1` is -71.5%; for `NS(=O)(=O)c1cc(C(=O)OCC(=O)c2ccccc2)c(Cl)cc1Cl` it is 4.64%.
The same measure for `COc1ccc(CNc2nc3ccccc3n2CCN2CCCCC2)c(OC)c1`: -84.4%.
The same measure for `CC(C)Cn1c(N)c(C(=O)COC(=O)C2Cc3ccccc3CN2S(C)(=O)=O)c(=O)n(C)c1=O` (centres unmarked): -17.5%.
